Source: the supplement of paper PMC10126150
Values marked as one replicate rest on one cluster of the flow cell; about a third of the high ones do not repeat.

System: ATP
Assay: switch fluorescence ratio, 500 uM ATP over buffer (Cy3 cluster intensity, sum of 5 cycles each) (fold (ratio)); higher = stronger signal-on switching upon ATP binding; sequences stand for … in TCGTCGGCAGCGTCAGATGTGTATAAGAGACAGTTTTTTTTTTTTTTTTTTTTTTTTT…TC
Details: aptamer strand: ATP DNA aptamer (quencher-CACCTGGGGGAGTATTGCGGAGGAAGG + anchor), 100 nM annealed; ATP concentration: 500 uM; one replicate
Outline: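 Exposure to 500 uM ATP lasted 15 min at 22 °C before imaging, and a selection-buffer image was taken beforehand, for Cy3-labelled switching-strand clusters on a modified Illumina MiSeq flow-cell annealed to 100 nM quencher-labelled ATP aptamer. Five buffer/ATP cycles were run with NaOH stripping and re-annealing between them. The fluorescence ratio per cluster is summed target-cycle over summed buffer-cycle Cy3 intensity, averaged per switch-domain sequence. Clusters outside 100-1000 RFU were excluded.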

| Sequence | switch fluorescence ratio |
| --- | --- |
| CTCTACAAGC | 1.92 |
| ATGCGGAGCT | 1.02 |
| CATAGCGGGG | 0.981 |
| AAAGAATATT | 1.02 |
| GTGAGAGCCT | 1.01 |
| GGACTCCCGC | 1.47 |
| GGCGGCCAAT | 1.01 |
| CCGTTGCCCG | 1.05 |
| CTACACACGC | 1.5 |
| GAGGGCTGTG | 1.03 |
| GTTAGACCTT | 1.17 |
| GGAACTGCGA | 1.08 |
| TTACAATAAA | 1 |
| GAAGGATTTA | 0.984 |
| GCTTTCCGTA | 0.995 |
| ATCAAAACG | 1.02 |
| GAGGTGACAT | 1.03 |
| TCAACTGCCT | 1.07 |
| ATGTGAGTGA | 1.03 |
| ACTTGCGATT | 1.03 |
| TCTGATTCTA | 0.981 |
| GGTTAATTTA | 1.01 |
| GAAGGGTTGT | 1.03 |
| GCGAGGACAC | 1.02 |
| TTGCACGACC | 1.24 |
| CCGATTACGT | 1.23 |

| Sequence | switch fluorescence ratio |
| --- | --- |
| ACTAGTCCTG | 1.02 |
| CGTGTGCGTG | 0.996 |
| GCCAAGGGAA | 0.993 |
| GGGTGTTCCG | 0.994 |
| TGTATTTCAG | 0.988 |
| TGACAAGGAA | 1.07 |
| TTGGGACCCT | 0.989 |
| GACTCGGCGT | 1.06 |
| AGACCGGCC | 1.36 |
| TTAGACGCCG | 1.03 |
| ACATTTGTGT | 1.01 |
| CGTCAATAGG | 1.49 |
| ACTGGCATCG | 0.997 |
| TGTGGTGACG | 0.991 |
| GGCTGGTTCC | 0.974 |
| CCCATTGTCA | 0.942 |
| TTATATGCGA | 1.01 |
| GTTTAACGAT | 1.03 |
| CACCGGGTG | 4.68 |
| GCAATGGTGC | 1.26 |
| TAATTGTTTA | 0.998 |
| CCGATTTCCA | 1.01 |
| CGCTGGGTAT | 0.972 |
| CGTACAGGTT | 1.04 |
| GATCATTTAT | 1.02 |
| CATATCCGGC | 1.03 |

| Sequence | switch fluorescence ratio |
| --- | --- |
| CTTCTGGTTT | 0.953 |
| CCCTAATAG | 1.21 |
| CATGGTTTAA | 1.05 |
| GCATCCAACG | 1.05 |
| AGAGAGAAAC | 1.02 |
| TTTACCTGAT | 1.06 |
| ACAGAGTTAT | 0.997 |
| TATGTTAGG | 1.02 |
| AACATGCGAA | 0.937 |
| TAATGGTGCA | 1.01 |
| TGGTCTTCAA | 0.996 |
| GCAGTCTG | 0.946 |
| AGTTTTATAC | 1.08 |
| GTGGCTTGGA | 1.01 |
| AACTTTATGT | 1.03 |
| AGACTTGTAT | 0.993 |
| TAGAACACGA | 0.998 |
| TATGGCCACG | 0.977 |
| TAACGAAGGG | 1.02 |
| GTAGCTGGT | 1.04 |
| GTCCGGGGGA | 1.02 |
| GCAGGTGGCC | 1.04 |
| GGCGACGGTG | 0.987 |
| AGAGACCGA | 0.994 |
| TGTTAAACTG | 1.02 |
| ACCGGACACG | 1.05 |

| Sequence | switch fluorescence ratio |
| --- | --- |
| TCTGGTCTGG | 0.977 |
| TGTTATCCGG | 1.03 |
| GGATTCGCT | 0.956 |
| CCTTGCCATT | 1.02 |
| TGCCTTTGTG | 0.966 |
| AATCTTTTTC | 1.01 |
| AGCCCCCCTG | 1.69 |
| GTGGGTGCGT | 0.975 |
| GCTATATGC | 1.06 |
| AACCTGGCAA | 3.5 |
| TGATTCTGT | 0.98 |
| CCTAAGATAC | 2.26 |
| AGAGACATAA | 1.01 |
| GGTCGGGTAA | 0.942 |
| ATTTGTTGCC | 0.982 |
| TGGGGCTTAC | 1.18 |
| CTGTTCTCA | 1.02 |
| GGTTGTATTC | 0.958 |
| GCGTAATAAA | 1.01 |
| GGTGGAAAAA | 1.01 |
| TCCAGTTCTT | 1.06 |
| CCATGACGT | 1 |
| GTTTCCATGT | 1.01 |
| TCAGCCATTC | 1.15 |
| TTGTCCTGGA | 1.04 |
| AACGATAACA | 1.09 |

| Sequence | switch fluorescence ratio |
| --- | --- |
| CGTGTTGCCT | 0.998 |
| GAGGGCCTCG | 1.01 |
| GCAAGTGTCC | 1.22 |
| CACTGTACCC | 1.41 |
| CCGCACCACG | 3.27 |
| GCTAGGCAGA | 1.02 |
| GTGAGTCCCT | 0.995 |
| TCGTTGTC | 0.915 |
| GTGTTTCTAG | 0.963 |
| ATACTGGAT | 1.01 |
| CAGTTGATCG | 0.997 |
| GTCTAGGCGA | 1.05 |
| GCATCGGTGG | 0.937 |
| ATAAATAGTG | 0.999 |
| CCTTATTAAC | 1.04 |
| CAATTCCGCT | 1.38 |
| TTATAGCGAT | 1.11 |
| GCAGGTCATT | 0.932 |
| CTTGGCCGGT | 0.975 |
| TTATAAAAGC | 0.968 |
| TGTCATCACG | 0.996 |
| AATAATCCTG | 1.03 |
| TTTGGGGCAA | 1.16 |
| ATAATTTCCC | 0.968 |
| CAGCGAAAAA | 0.983 |
| GAGTAATAGA | 0.993 |

| Sequence | switch fluorescence ratio |
| --- | --- |
| GAACGCGGGT | 0.965 |
| GGACTTTCTC | 1.07 |
| CGAATCTTGG | 0.975 |
| CACTACTTAA | 1.04 |
| ACGTATAGTT | 1.06 |
| ATGAGTATCT | 1.02 |
| AGCGTAACAG | 0.957 |
| GTGGAGAGAG | 0.957 |
| ACTAAGGTGT | 1.27 |
| GAAAGTCTC | 1.06 |
| GCGGCTTTGT | 0.982 |
| GTCGTCGG | 1.12 |
| TAGTAGGGAA | 0.986 |
| TCGGGGCGGT | 1.01 |
| TGCGTTGTAC | 1.48 |
| TTGTCATACG | 0.988 |
| GCCGGTATAC | 2.7 |
| CGCCAATGGT | 1.25 |
| AAGGTAAAGA | 1 |
| AAACGCGC | 1.08 |
| GCGACCGGGA | 0.983 |
| GAATAAATGG | 0.98 |
| CTAGAATTTC | 0.973 |
| GCCCCTTTAT | 1.01 |
| TTCCGTTGGT | 0.973 |
| CAATATAGTT | 0.955 |

| Sequence | switch fluorescence ratio |
| --- | --- |
| TTGTATCCGT | 1.02 |
| CCTCCAGTTT | 1.41 |
| TTAAGGGGTC | 1.06 |
| CTAAAGACCG | 1.01 |
| TGTTAGTTGC | 0.952 |
| GGTCATCTC | 1 |
| AAGACGCGGT | 1.02 |
| TTATGCTGAC | 1.04 |
| TGTTTAGCGA | 1.02 |
| GGGTACGGCG | 1.03 |
| TTTGCGCATG | 1.04 |
| GCCAGCGGTG | 1.07 |
| AGTTGATAAC | 0.932 |
| GCGATAACCT | 2.13 |
| AGCTCAGTA | 0.997 |
| TCCGTTACGC | 2.41 |
| GGGACTTCA | 1.02 |
| AGGGTTTGCC | 0.977 |
| TCAAAGTCTT | 0.991 |
| TGAGTCCGGA | 0.952 |
| AGGCTGCTAT | 0.971 |
| GGCCAGTAAA | 0.964 |
| GACGGTCTG | 0.955 |
| TCTGTATGAG | 1.03 |
| TCTTTCAACC | 1 |
| TAACAACTCA | 1.02 |

| Sequence | switch fluorescence ratio |
| --- | --- |
| TTTTCTCCAC | 1.05 |
| TTTCATATTA | 1.02 |
| CAGGAAAGTG | 0.957 |
| TCAGGCCGCA | 1.23 |
| ATATGGAAAG | 1.04 |
| ATATCCATGA | 0.991 |
| TCAGTGTACT | 1.1 |
| ATGAAGGTTT | 0.992 |
| CTCGACCGCA | 2.61 |
| CTGTGTTTTT | 1.02 |
| CTGTGATGCG | 0.942 |
| TAGAGTGCTG | 1.09 |
| ATACAATGGG | 1.04 |
| TTGCCCCCGT | 1.01 |
| ACCGTAATGT | 1.38 |
| CAGTCCTTAG | 0.991 |
| ACAGATGCGG | 1.05 |
| ATGATATCCT | 1.07 |
| TTATATATCG | 0.968 |
